# PubChem BioAssay AID504339 (National Center for Advancing Translational Sciences (NCATS), 2011)
# Screen size: about 390,000 compounds; about 17,000 (4.4%) were called active. The inconclusive results got no clear call from the source; some entries with a clear call stand among them for comparison. Calls follow the shape of the dose curve; as a rule, active = well fitted inhibition curve with a large enough effect; inconclusive = small, poorly fitted or top-dose-only effect; inactive = no such curve, though single readings can be large or run the other way. A potency beside an inconclusive call is a rough fit, not a confirmed value.
# Molecular target: Lysine-specific demethylase 4A (Homo sapiens) (UniProt O75164)
# Experiment: qHTS Assay for Inhibitors of JMJD2A-Tudor Domain; also: nearly all actives have a fitted effect of over 50% in size
# Settings: AlphaScreen JMJD2A-Tudor / H3K4me3 peptide binding; series mostly up to 114 µM
# Potency is read from the fitted curve at half-maximal effect; tags tell the direction and shape of the fitted curve.
# UniProt O75164, sequence (O75164 whole entry, looked up, the tested form may be a part): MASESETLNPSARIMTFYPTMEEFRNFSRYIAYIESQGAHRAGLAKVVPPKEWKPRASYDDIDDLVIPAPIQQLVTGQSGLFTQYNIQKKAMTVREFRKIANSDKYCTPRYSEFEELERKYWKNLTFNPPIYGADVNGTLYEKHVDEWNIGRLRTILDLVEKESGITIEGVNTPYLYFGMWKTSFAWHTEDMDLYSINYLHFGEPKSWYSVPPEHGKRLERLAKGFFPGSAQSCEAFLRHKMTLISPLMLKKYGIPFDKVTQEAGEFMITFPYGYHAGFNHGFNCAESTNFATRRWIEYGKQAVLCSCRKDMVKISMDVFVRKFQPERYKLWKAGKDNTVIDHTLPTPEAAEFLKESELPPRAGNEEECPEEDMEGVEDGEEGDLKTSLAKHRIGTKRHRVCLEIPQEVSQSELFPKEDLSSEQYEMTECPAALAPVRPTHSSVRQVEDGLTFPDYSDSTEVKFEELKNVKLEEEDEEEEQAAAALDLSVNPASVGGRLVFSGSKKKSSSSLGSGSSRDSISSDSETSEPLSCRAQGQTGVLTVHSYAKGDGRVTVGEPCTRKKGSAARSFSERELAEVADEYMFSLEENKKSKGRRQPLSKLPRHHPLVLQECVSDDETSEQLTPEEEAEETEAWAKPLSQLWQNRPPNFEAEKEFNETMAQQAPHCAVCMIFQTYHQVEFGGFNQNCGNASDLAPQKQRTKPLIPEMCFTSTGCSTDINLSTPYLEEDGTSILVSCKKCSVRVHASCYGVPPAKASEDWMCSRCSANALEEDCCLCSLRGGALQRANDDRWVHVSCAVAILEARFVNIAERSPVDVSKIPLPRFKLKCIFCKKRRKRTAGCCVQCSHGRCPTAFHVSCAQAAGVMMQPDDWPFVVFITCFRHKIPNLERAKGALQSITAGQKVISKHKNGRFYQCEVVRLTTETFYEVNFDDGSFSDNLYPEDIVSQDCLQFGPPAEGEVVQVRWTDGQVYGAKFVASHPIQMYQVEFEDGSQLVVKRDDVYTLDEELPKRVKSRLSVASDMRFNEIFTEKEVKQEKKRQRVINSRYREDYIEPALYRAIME
row,SMILES,Potency
1,O=C(Nc1ccc(N2CCCCC2)c(Cl)c1)c1ccc2c(c1)OCCO2,"inconclusive: 79.4 µM [inhibitor, single point]"
2,Cc1cccc(OC(=O)c2cc(-c3ccc(Cl)cc3)on2)c1C,inactive
3,O=C(O)CN1C(=O)/C(=C2\C(=O)N(Cc3ccccc3Cl)c3ccccc32)SC1=S,"inconclusive: 14.1 µM [inhibitor, single point]"
4,COc1ccccc1OCC#CCNC1CCCCC1C (stereo not drawn),"inconclusive: 89.1 µM [inhibitor, single point]"
5,COC(=O)c1ccc(NC(=O)CCS(=O)(=O)c2ccc3c(c2)NC(=O)C(C)S3)cc1 (stereo not drawn),"inconclusive: 20 µM [inhibitor, full curve]"
6,COc1cccc(Nc2nc(Nc3ccc(Cl)c(C(=O)O)c3)nc(C)c2[N+](=O)[O-])c1,"inconclusive: 56.2 µM [inhibitor, partial curve]"
7,CCn1c(=O)cc(OCC(=O)NCc2ccco2)c2ccccc21,"inconclusive: 28.2 µM [inhibitor, full curve]"
8,O=C(CCc1ccccc1)c1c(O)cc(O)cc1O,"inconclusive: 89.1 µM [inhibitor, partial curve]"
9,COc1ccc(C(=O)Oc2cc(/C=N/NS(=O)(=O)c3ccccc3)ccc2OC)cc1,"inconclusive: 79.4 µM [inhibitor, partial curve]"
10,COc1cc(OC)c2c(-c3cccc(-c4cccc(N)c4)c3)cc(=O)oc2c1,"inconclusive: 22.4 µM [inhibitor, full curve, poor fit]"
11,O=C(CSc1nnc(NC(=O)c2ccccc2F)s1)Nc1ccccc1F,inactive
12,CSc1nc(N)nc2c1ncn2CC(=O)N1CCN(c2ccccn2)CC1,inactive
13,Cc1ccc(C(=O)NCCc2ccccc2)cc1S(=O)(=O)N1CCOCC1,inactive
14,COc1ccc(NC(=O)CSC2=Nc3ccccc3C3=NC(CCC(=O)NCCc4ccccc4)C(=O)N23)c(OC)c1 (stereo not drawn),inactive
15,CCOc1ccc(NC(=S)Nc2cc(OC)c(Cl)cc2OC)cc1,"inconclusive: 39.8 µM [inhibitor, partial curve]"
16,CC(C)NC(=S)N/N=C/c1cccnc1,"inconclusive: 15.8 µM [inhibitor, partial curve]"
17,O=C(NC(=O)c1ccc(Cl)cc1)Nc1cc(N2CCCCC2)ncn1,active: 79.4 µM
18,O=C(Nc1ccc(N2CCCC2)c(Cl)c1)c1ccccc1[N+](=O)[O-],"inconclusive: 11.2 µM [inhibitor, full curve]"
19,CCN(CC)C(=O)C1=C(C)Nc2nc3ccccc3n2C1c1cccc(Cl)c1 (stereo not drawn),inactive
20,Cc1ccc(NC(=O)Cn2c(=O)c(CNc3ccccc3)cc3cc4c(cc32)OCCO4)cc1,inactive
21,CCOC(=O)c1nnc(-c2ccccc2)nc1Sc1c(Cl)cccc1Cl,"inconclusive: 50.1 µM [inhibitor, partial curve]"
22,c1cncc(-c2ccc3ncnc(NCc4cccs4)c3c2)c1,"inconclusive: 56.2 µM [inhibitor, partial curve]"

row,SMILES,Potency
1,O=C(NCCc1nc2ccccc2[nH]1)/C(=C/c1ccco1)NC(=O)c1ccc(Br)cc1,inactive
2,Cc1cc(C)c(CN2CCN(CCCn3ccc(NC(=O)OCc4ccccc4)nc3=O)CC2)c(C)c1,inactive
3,O=C1NC[C@@H](Cc2cccc3ccccc23)N(CC2(c3ccccc3)CC2)C1=O,"inconclusive: 50.1 µM [inhibitor, partial curve]"
4,COc1ccccc1Cn1c(CNS(=O)(=O)c2cccc([N+](=O)[O-])c2)nc2cccnc21,"inconclusive: 14.1 µM [inhibitor, full curve, poor fit]"
5,CC(=O)NC(c1cc(Cl)c2cccnc2c1O)C(C)C (stereo not drawn),"inconclusive: 89.1 µM [inhibitor, partial curve]"
6,COc1ccc(CC(=O)Nc2ccc(C(=O)NCC(C)C)cc2)cc1,"inconclusive: 100 µM [inhibitor, single point]"
7,COc1ccc(C)cc1NC(=O)CCn1nc(C)cc1C,"inconclusive: 50.1 µM [inhibitor, partial curve]"
8,CC(=O)Nc1ccc(S(=O)(=O)NNc2ccc([N+](=O)[O-])cc2)cc1,active: 6.31 µM
9,COc1ccccc1NC(=O)Nc1nc(CC(=O)N2CCN(c3ccc(F)cc3)CC2)cs1,"inconclusive: 44.7 µM [inhibitor, partial curve]"
10,O=C(C[n+]1ccccc1)c1ccc(NC(=O)c2ccccc2)cc1,"inconclusive: 25.1 µM [inhibitor, partial curve]"
11,CCOC(=O)c1sc(NC(=O)c2cccc(S(=O)(=O)N3CCN(C)CC3)c2)cc1C,"inconclusive: 89.1 µM [inhibitor, single point]"
12,COc1ccc(N2CCN(C(=O)c3ccc(C)c(NC(=O)C4=C(C)OCCS4)c3)CC2)cc1,"inconclusive: 56.2 µM [inhibitor, partial curve, poor fit]"
13,CCN(CC)S(=O)(=O)c1cccc(N=Nc2sc(N)nc2C)c1,active: 35.5 µM
14,CCC(CO)Oc1cc(NC(=O)c2cccc3ccccc23)c2ncn(C(C)C)c2c1 (stereo not drawn),"inconclusive: 56.2 µM [inhibitor, partial curve, poor fit]"
15,CC(c1ccccc1)C1C(C#N)=C(N)SC(N)=C1C#N (stereo not drawn),"inconclusive: 89.1 µM [inhibitor, single point]"
16,COc1ccc(/C=C/C(=O)c2ccc(Cl)cc2)c(OC)c1,inactive
17,CC(=O)Nc1cccc(Oc2ncnc3scc(-c4ccc(C(C)C)cc4)c23)c1,"inconclusive: 56.2 µM [inhibitor, partial curve]"
18,Cc1ccc(S(=O)(=O)NC(CC(N)=O)C(=O)O)cc1 (stereo not drawn),"inconclusive: 39.8 µM [inhibitor, single point]"
19,O=C(NCCc1cccc(Cl)c1)c1ccc(Cl)c([N+](=O)[O-])c1,"inconclusive: 89.1 µM [inhibitor, single point]"
20,Nc1ccc(C(=O)Nc2ccco2)cc1,"inconclusive: 79.4 µM [inhibitor, single point]"
21,CC(=O)Nc1ccc(C2=CC(=O)C[C@H](c3ccc(Cl)cc3)C2)cc1,"inconclusive: 89.1 µM [inhibitor, partial curve]"
